# Measurements as given in US20230174649A1, “PHARMACEUTICAL COMPOSITIONS CONTAINING ANTI-CD47 ANTIBODIES” (I-MAB BIOPHARMA US LIMITED, priority 2020, published 2023).
# “And” between values parts separate entries of the source, which are not always exact repeats. Equal values may be shown once.
# B1: T4J: isolated anti-CD47 antibody, SEQ ID NO: 81 and SEQ ID NO: 82 (antibody, listed as Homo sapiens)
# heavy: EVQLVESGGGLVKPGGSLRLSCAASGLTFERAWMNWVRQAPGKGLEWVGRIKRKTDGETTDYAAPVKGRFSISRDDSKNTLYLQMNSLKTEDTAVYYCAGSNRAFDIWGQGTMVTVSSASTKGPSVFPLAPCSRSTSESTAALGCLVKDYFPEPVTVSWNSGALTSGVHTFPAVLQSSGLYSLSSVVTVPSSSLGTKTYTCNVDHKPSNTKVDKRV[skipping human IgG4 Fc with S228P (EU numbers)]
# light: DIVMTQSPDSLAVSLGERATINCKSSQSVLYAGNNRNYLAWYQQKPGQPPKLLINQASTRASGVPDRFSGSGSGTEFTLIISSLQAEDVAIYYCQQYYTPPLAFGGGTKLEIKRTVAAPSVFIFPPSDEQLKSGTASVVCLLNNFYPREAKVQWKVDNALQSGNSQESVTEQDSKDSTYSLSSTLTLSKADYEKHKVYACEVTHQGLSSPVTKSFNRGEC
# How the values were obtained:
# Toledo Cells = assay: FACS-based phagocytosis assay, macrophages cocultured with Toledo cells; format: cell-based, Human
# Experimental: FACS-based phagocytosis assays were performed to evaluate the phagocytic abilities of macrophages.
# Toledo Cells (a tumor cell line, as a target) were labelled with CellTrace™ Far Red and plated into 96-well plate at a density of 0.15×10^6 cells/well for 12 hours. The Macrophages were prepared as discussed above and then labelled with CellTrace Violet. Next, the macrophages were added into the plate as an effector at an effector:target (Toledo) ratio of 1:3, giving a final density of macrophages at 0.05×10^6 cells/well. Macrophages and tumor cells were cocultured for 2-6 h at 37° C. in the presence of the indicated treatments (small molecule therapeutic agents, CD47 antibody, CD20 antibody or combinations). The incubation time depending on the phagocytosis rate, expecting phagocytosis of 5-20% cells.
# Then, cells were acquired and data were analyzed.
# HL-60 cells = assay: Anti-tumor efficacy in subcutaneous HL-60 xenograft model; format: in vivo, female NOG mice
# Experimental: HL-60 cells (a human promyelocytic leukemia cell line, ATCC® cat #CCL-240) were maintained in suspension culture in complete cell growth medium at 37° C. in an atmosphere with 5% CO2. The cells were split twice a week to maintain an exponential growth. After culturing, cells were harvested and counted for tumor inoculation.
# To establish the xenograft model, HL-60 cells (10×10^6) were suspended in 0.2 mL of PBS with the same volume of Matrigel and subcutaneously injected into the right flank of each mouse. When tumor volume reaches a mean value of approximately 72 mm^3, i.e., on day 6 after inoculation, mice were divided into several groups and treated with PBS (control group), anti-CD47 antibody (i.e., T4J), AZA, or a combination of T4J and AZA, respectively.
# At the time of routine monitoring, the animals were daily checked for any effects of tumor growth and treatments on normal behavior such as mobility, food and water consumption (by looking only), body weight gain/loss (body weights were measured twice a week), eye/hair matting and any other abnormal effects. Death and observed clinical signs were recorded.
# Tumor size was measured twice a week in two dimensions using a caliper, and the volume was calculated using the formula: Volume (V)=(L×W×W)/2, where L is tumor length (the longest tumor dimension) and W is tumor width (the longest tumor dimension perpendicular to L). The tumor volume was then used for calculating T/C values. The T/C value (in percentage) is an indicator of antitumor effectiveness, in which T and C are the mean volumes of the treatment group and the control groups, respectively.
# The percentage of tumor growth inhibition (TGI) was calculated for each group as follows: 100%×(1−[(Vtreated(^final day)−Vtreated(^initial day))/Vcontrol(^final day)−Vcontrol(^initial day)))], where V is the tumor volume.
# Tumor body weight was measured at the end of the study. T/C weight value (in percentage) was calculated using the formula: T/C weight %=T weight/C weight×100% where T weight and C weight were the mean tumor body weight of the treatment group and the control group (vehicle group), respectively.
# Q=TGI(A+B))/(TGI(A)+TGI(B)−TGI(A)×TGI(B))
# According to Jin's formula, Q<0.85 indicates antagonistic effect, 0.85≤Q<1.15 indicates additive effect, and Q≥1.15 indicates synergistic effect.
# T-test was performed to compare tumor body weight among groups. One-way ANOVA was performed to compare tumor volume among groups, and when a significant F-statistics (a ratio of treatment variance to the error variance) was obtained, comparisons between groups were carried out with Games-Howell test. All data were analyzed using IBM SPSS software. A P value of less than 0.05 (p<0.05) was considered statistically significant.
# WSU-DLCL2 cells = assay: Anti-tumor efficacy in WSU-DLCL2 tumor xenograft model; format: in vivo, NOD/SCID mice; conditions: 5 mg/kg each agent
# Source text: To establish the xenograft model, human diffuse large B Cell lymphoma (WSU-DLCL2 cells) were subcutaneously (s.c.) injected into 6- to 7-week-old NOD/SCID mice (Shanghai Lingchang Biotechnology Co., Ltd, Shanghai, China) for tumor development. When tumor volume reaches a mean value of approximately 94 mm^3, 32 mice were divided into 4 groups of 8 equally and injected intravenously (i.v.) with PBS (control group), anti-CD47 antibody (i.e. T4J), rituximab, or anti-CD47 antibody T4J+ rituximab at a dose of 5 mg/kg, respectively (See, Table 5). The anti-tumor efficacy studies were performed using a twice per week dosing schedule (5 mg/kg) for 4 weeks.
# The first day of antibody administration was designated as day 0. Mice were then monitored for tumor development and progression, and observation continued until day 43. Tumor volumes were measured twice a week in two dimensions (length and width) using a caliper, and the volumes were calculated using the following formula: Volume (V)=(L×W×W)/2, where L is tumor length (the longest tumor dimension) and W is tumor width (the longest tumor dimension perpendicular to L). The percentage of tumor growth inhibition (TGI) was calculated as follows: 100%×(1−[(Vtreated(^finalday)−Vtreated(^initial day))/(Vcontrol(^final day)−Vcontrol(^initial day)))]), where V is the tumor volume. Tumor body weight was measured twice per week after randomization and at day 43. Antibody treatment was then stopped after 43 days of study and mice were euthanized and necropsied for evidence of tumors.
# Group comparisons were carried out using one-way analysis of variance (ANOVA). Data analysis were performed using IBM SPSS software version 18.0 (IBM, Armonk, N.Y., U.S.). Values of tumor volume and tumor body weight were expressed as mean±standard error of the mean (SEM). A P value of less than 0.05 (p<0.05) was considered statistically significant.
# [1] = from tumor volume, i.v., BIW × 4 weeks, day 43
molecule,measurement,setting,value
B1,macrophage phagocytosis (untreated = 1.00),"Toledo Cells; Cpd 0, T4J = 0.1 ug/ml, R = 0",2.20 and 2.41 and 2.30
same,phagocytic ability of macrophages,Toledo Cells; agent itself or antibody combination,can promote macrophage phagocytosis
same,"Tumor volume (mm^3), Mean ± SEM","HL-60 cells; day 0 (first dosing), 3 mg/kg",70 ± 7 mm^3
same,"Tumor volume (mm^3), Mean ± SEM","HL-60 cells; day 3, 3 mg/kg",180 ± 10 mm^3
same,"Tumor volume (mm^3), Mean ± SEM","HL-60 cells; day 7, 3 mg/kg",473 ± 36 mm^3
same,"Tumor volume (mm^3), Mean ± SEM","HL-60 cells; day 10, 3 mg/kg",760 ± 52 mm^3
same,T/C (%),"HL-60 cells; day 12, 3 mg/kg",41.68%
same,TGI (%),"HL-60 cells; day 12, 3 mg/kg",59.74%
same,"Tumor volume / Tumor Size (mm^3) at day 12, Mean ± SEM","HL-60 cells; day 12, 3 mg/kg",1235 ± 89 mm^3
same,anti-tumor efficacy compared with the control group,WSU-DLCL2 cells; after four weeks of dosing / day 43,no anti-tumor efficacy
same,Tumor Body Weight (mg) on day 43 (Mean ± SEM),"WSU-DLCL2 cells; i.v., BIW × 4 weeks, day 43",2426.0 ± 283.0 mg
same,Tumor Volume (mm^3) on day 43 (Mean ± SEM),"WSU-DLCL2 cells; i.v., BIW × 4 weeks, day 43",2148.89 ± 227.87 mm^3
same,T/C (%),"WSU-DLCL2 cells; from tumor body weight, day 43",96%
same,TGI (%),"WSU-DLCL2 cells; from tumor body weight, day 43",4%
same,T/C (%),WSU-DLCL2 cells; [1],99%
same,TGI (%),WSU-DLCL2 cells; [1],1%
